Measured values published in a compilation of properties of binary mixtures (doi:10.1016/j.molliq.2015.07.073).
The densities may have been worked out from excess volumes.

Experiment: xn = mol fraction of the nth substance listed
Conditions: 101 kPa

C=CC[n+]1ccn(C)c1.N#C[S-] + CO
mass density [kg/m3]
Conditions | x2 = 0 | x2 = 0.0972 | x2 = 0.2866 | x2 = 0.4049 | x2 = 0.5184 | x2 = 0.6079 | x2 = 0.7044 | x2 = 0.8016 | x2 = 0.8994
293.15 K | – | 1161.5 | 1140.6 | 1122.4 | 1098.2 | 1073.4 | – | – | 918.2
298.15 K | 1167 | 1158.2 | 1137.2 | – | 1094.6 | 1069.7 | 1035.7 | 986.5 | 914.1
303.15 K | 1163.7 | 1154.9 | – | – | 1091.1 | 1066.1 | 1031.8 | 982.6 | 910
308.15 K | 1160.6 | 1151.7 | 1130.6 | 1112.1 | 1087.6 | 1062.5 | 1028 | – | 905.8
313.15 K | 1157.3 | 1148.5 | 1127.2 | – | – | 1058.7 | 1024.4 | 974.9 | 901.7
318.15 K | 1154.1 | 1145.3 | 1123.9 | 1105.2 | 1080.6 | 1055.2 | 1020.4 | 971 | 897.6
323.15 K | 1151 | 1142.2 | 1120.6 | 1101.9 | 1077.1 | 1051.6 | 1016.4 | 967.1 | 893.5

CCCC[n+]1ccn(C)c1.N#C[S-] + CO
mass density [kg/m3]
Conditions | 293.15 K | 298.15 K | 303.15 K | 308.15 K | 313.15 K | 318.15 K | 323.15 K
x1 = 0.0167 | 814.8 | 810.2 | – | 801 | 796.4 | – | 787.2
x2 = 0 | – | – | 1066.8 | – | – | – | 1055
x2 = 0.0951 | 1067.3 | – | 1061.3 | – | – | – | –
x2 = 0.1943 | 1060.4 | – | 1054.3 | – | 1048.3 | – | –
x2 = 0.2882 | 1053.2 | – | 1047.1 | – | 1041 | – | 1034.9
x2 = 0.3763 | 1044.9 | – | 1038.7 | – | 1032.5 | – | 1026.3
x2 = 0.4922 | 1031.3 | – | – | – | 1018.6 | – | –
x2 = 0.6379 | – | 1001.6 | 998.2 | 994.9 | 991.5 | 988.2 | 984.9
x2 = 0.7931 | – | 954.8 | 951.2 | – | – | 940.3 | –
x2 = 0.8543 | 928.4 | – | 920.7 | 916.9 | – | 909.3 | 905.5
x2 = 0.9042 | 896.6 | – | – | – | 880.6 | – | 872.6
x2 = 0.9455 | 858.8 | 854.6 | 850.3 | 846 | 841.8 | 837.5 | 833.2

CO + CCCCn1cc[n+](CCC#N)c1.N#C[S-]
x1 = 1
Conditions | mass density [kg/m3]
298.15 K | 786.9
303.15 K | 782.2
308.15 K | 777.4
313.15 K | 772.7
318.15 K | 767.9

CCCCn1cc[n+](CCC#N)c1.N#C[S-] + CO
mass density [kg/m3]
Conditions | x2 = 0 | x2 = 0.0687 | x2 = 0.1749 | x2 = 0.2892 | x2 = 0.4013 | x2 = 0.5135 | x2 = 0.6655 | x2 = 0.7342 | x2 = 0.8141
293.15 K | 1163.7 | 1159.2 | 1151.4 | – | – | 1109 | 1071 | 1044.4 | 1000.6
298.15 K | 1160.5 | 1156 | 1148.2 | 1137.4 | 1123.8 | – | 1067.4 | 1040.6 | 996.6
303.15 K | – | 1152.8 | 1144.9 | – | 1120.4 | 1102.2 | – | 1036.8 | 992.5
308.15 K | 1154.1 | – | 1141.8 | 1130.9 | – | 1098.8 | 1060.3 | – | 988.5
313.15 K | 1150.9 | – | 1138.6 | 1127.7 | – | 1095.5 | 1056.7 | 1029.5 | 984.6
318.15 K | 1147.7 | 1143.2 | 1135.3 | 1124.4 | 1110.5 | – | – | 1025.7 | –
323.15 K | – | 1140 | 1132.1 | 1121.1 | 1107.2 | 1088.7 | 1049.6 | 1022 | 976.5

CO + C=CC[n+]1ccn(C)c1.N#C[S-]
x1 = 1
Conditions | mass density [kg/m3]
298.15 K | 786.9
303.15 K | 782.2
308.15 K | 777.4
313.15 K | 772.7
318.15 K | 767.9
323.15 K | 763.1

CO + CCCC[n+]1ccn(C)c1.N#C[S-]
x1 = 1
Conditions | mass density [kg/m3]
293.15 K | 791.6
298.15 K | 786.9
303.15 K | 782.2
308.15 K | 777.4
323.15 K | 763.1
